Laboratory results published in PubChem BioAssay AID1671188 (National Center for Advancing Translational Sciences (NCATS), 2021).
Where “and” joins values, the source holds several entries; their conditions need not be identical. Equal entries are not always repeated. The campaign covered roughly 100,000 compounds. About 250 (0.25%) were called active. The inconclusive results got no clear call from the source; some entries with a clear call stand among them for comparison. Calls come from the whole dose curve; as a rule, active = well fitted inhibition curve with a large enough effect; inconclusive = small, poorly fitted or top-dose-only effect; inactive = flat fitted curve, though single readings scatter. Potencies of inconclusive entries are doubtful fits and often do not repeat.

Biological target: Alanine aminotransferase 2 (Homo sapiens) (UniProt Q8TD30)
UniProt Q8TD30, sequence (Q8TD30 whole entry, looked up): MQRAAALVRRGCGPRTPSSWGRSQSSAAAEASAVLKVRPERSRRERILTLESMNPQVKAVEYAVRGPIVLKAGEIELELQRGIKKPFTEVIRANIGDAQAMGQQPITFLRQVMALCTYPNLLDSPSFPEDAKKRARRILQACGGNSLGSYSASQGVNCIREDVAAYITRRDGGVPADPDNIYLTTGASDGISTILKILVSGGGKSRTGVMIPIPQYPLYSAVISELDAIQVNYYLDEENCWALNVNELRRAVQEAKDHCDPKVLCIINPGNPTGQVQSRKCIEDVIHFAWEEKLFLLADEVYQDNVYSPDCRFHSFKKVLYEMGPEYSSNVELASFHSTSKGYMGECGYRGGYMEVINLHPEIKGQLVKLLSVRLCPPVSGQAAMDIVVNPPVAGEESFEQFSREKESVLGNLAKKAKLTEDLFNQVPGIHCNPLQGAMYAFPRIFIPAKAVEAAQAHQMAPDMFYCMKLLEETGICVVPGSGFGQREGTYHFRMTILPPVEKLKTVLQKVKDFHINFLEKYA
Assay: Primary qHTS assay for inhibitors of Glutamate pyruvate transaminase 2 (GPT2); note: nearly all actives have a fitted effect of over 60% in size
Conditions: Recombinant GPT2, coupled pyruvate oxidase/HRP Amplex Red fluorescence; activity change, negative = inhibition: at 57.7 µM (top of the series) unless noted; series mostly up to 57.7 µM
How it was run: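 Fluorescence of coupled pyruvate oxidase/HRP/Amplex Red system (50uM Amplex, 30 min, dark) reports pyruvate formed by GPT2. Enzyme reaction: 10ng/uL GPT2, 2mM L-alanine, 250uM a-KG, 30 min room temperature, pH 7.5; 50uM AOA control.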
% is set by controls: 0 for no effect and ±100 for the full control effect; potency is the fitted concentration of half-maximal effect; tags give direction and shape of the fitted curve.

Structure (SMILES) | Potency | activity change, negative = inhibition | outcome
C=CCN1CCc2c(cc(O)c(O)c2Cl)C(c2ccccc2)C1 (stereo not given) | inconclusive: 6.31 µM [inhibitor, partial curve, poor fit] | – | –
Cc1cc(=O)n(CC(=O)Nc2cccc(F)c2)c(N2CCc3ccccc3C2)n1 | – | inactive: 1.38% | –
O=C(NCCCN1CCCc2ccccc21)c1cccnc1N1CC2CC(C1)[C@H]1CCCC(=O)N1C2 (stereo not given in full) | inconclusive: 10 µM [inhibitor, partial curve, poor fit] | – | –
CN1CCC(Oc2ccc(NC(=O)CCCc3ccccc3)cn2)CC1 | – | inactive: -7.08% | –
CS(=O)(=O)c1ccc(-c2cnc([C@@H]3COCCN3C3CCNCC3)[nH]2)cc1 | inconclusive: 56.2 µM [inhibitor, single point] | – | –
CC1CCN(C(=O)c2cc(CN3CCC(Cc4ccccc4)CC3)on2)CC1 | inconclusive: 7.08 µM [inhibitor, single point] | – | –
Cc1ccc(F)c(C(=O)N[C@H](Cc2ccccc2)C2CC(O)C2)c1Cl (stereo not given in full) | inconclusive: 5.62 µM [inhibitor, single point] | – | –
CN(Cc1ccc(F)cc1)S(=O)(=O)c1cccc(C(F)(F)F)c1 | inconclusive: 3.98 µM [inhibitor, full curve, poor fit] | – | –
CN1CCN(Cc2ccc(NC(=O)Nc3ccc(Oc4cc(NC(=O)C5CC5)ncn4)cc3)cc2C(F)(F)F)CC1 | inactive and inconclusive: 6.31 µM [inhibitor, single point] | – | –
COc1cccc([S+](=O)([O-])N2CCC3(CC2)C(=O)Nc2ccccc23)c1 | inconclusive: 11.2 µM [inhibitor, single point] | – | –
Cn1c(CCNC(=O)Cn2nc3c(cc2=O)CCCC3)nc2ccccc21 | – | inactive: 3.27% | –
Cc1ccc(CCC(=O)N2C[C@@H](CN3CCOCC3)[C@@H](CO)C2)cc1 | inconclusive: 3.98 µM [inhibitor, single point] | – | –
CCn1cc(CN2C[C@@H](COC)[C@H](C(=O)N(C)C)C2)cn1 | inconclusive: 3.16 µM [inhibitor, partial curve, poor fit] | – | –
COCc1cc([C@H]2N[C@@](C)(C(=O)OC)[C@H]3C(=O)N(C)C(=O)[C@@H]23)ccc1OC | inconclusive: 3.16 µM [inhibitor, single point] | – | –
CCCS(=O)(=O)N1Cc2c(ncn2Cc2ccc(Cl)cc2)C[C@H]1C(=O)OC | inconclusive: 11.2 µM [inhibitor, single point] | – | –
CCN1C(=O)CCN(C(=O)NCc2ccc(C)cc2)CC12CCOCC2 | inconclusive: 6.31 µM [inhibitor, single point] | – | –
Cc1[nH]nc2c1C(c1cccc(F)c1)C(C#N)=C(N)O2 (stereo not given) | inconclusive: 39.8 µM [inhibitor, single point] | – | –
COc1cccc(CN2Cc3nc(-c4cccc(NC(C)=O)c4)ccc3OCC2=O)c1 | – | inactive: 0.11% [at 88.5 µM] | –
C=CCOc1cccc(-c2nc(C(=O)N(C)Cc3ccco3)cs2)c1 | – | inactive: 4.15% | –
O=S(=O)(c1ccccc1)N1CCCC(Cn2c(C3CC3)nc3cccnc32)C1 (stereo not given) | inconclusive: 3.55 µM [inhibitor, single point] | – | –

Structure (SMILES) | Potency | activity change, negative = inhibition | outcome
O=C(c1scc2c1OCCO2)N1CCC2(CC1)c1ccccc1CC2O (stereo not given) | – | inactive: -2.18% [at 11.5 µM] | –
COc1ccc(OC)c(NC(=O)c2ccc3c(c2)N(S(=O)(=O)c2ccccc2)CC3)c1 | inconclusive: 28.2 µM [inhibitor, partial curve, poor fit] | – | –
COc1cccc(-c2cn3c(n2)N(C(=O)c2ccoc2)CCC3)c1 | – | inactive: -1.73% | –
CC1=C[C@@H](CNCCN(C)C)[C@H](C(C)C)C[C@H]1Cc1nnc(C(C)(C)C)o1 | – | inactive: -6.52% [at 88.5 µM] | –
O=C(Cc1c[nH]c2ncc(-c3ccccc3)cc12)NC1CC1 | inconclusive: 15.8 µM [inhibitor, single point] | – | –
Cc1noc(-c2ccn3c(CNC(=O)c4cc5ccccc5[nH]4)nnc3c2)n1 | – | inactive: -2.24% | –
Cn1ncc2c(C(=O)NCCc3ccccc3F)cc(-c3ccc(F)cc3)nc21 | – | inactive: -19.2% | –
COc1cccc([S+](=O)([O-])N2CCC3(CC2)C(=NC2CCCC2)NC(=O)N3c2cccnc2)c1 | inconclusive: 6.31 µM [inhibitor, single point] | – | –
COc1ccc(-c2cc(N3CCCC(NC(=O)c4cc(C)cc(C)c4)C3)n[nH]2)cc1 (stereo not given) | inconclusive: 17.8 µM [inhibitor, partial curve, poor fit] | – | –
NC(=O)Nc1sc(-c2ccc(F)cc2)cc1C(N)=O | – | inactive: 0.739% | –
Cc1noc([C@@H]2CN(Cc3cccc(Cl)c3F)C[C@H]2CO)n1 | inconclusive: 39.8 µM [inhibitor, single point] | – | –
COc1cc(C(=O)NC2CCCN(c3cc(-c4ccccc4)[nH]n3)C2)cc(OC)c1OC (stereo not given) | inconclusive: 39.8 µM [inhibitor, single point] | – | –
COc1nc2c(cc1CNC(=O)c1cnc(C)nc1)C(=O)N(C1CCCC1)C2 | inconclusive: 31.6 µM [inhibitor, single point] | – | –
O=C(O)CCC(=O)N1Cc2ccccc2CC2(CCCCN2CC2CCOCC2)C1 (stereo not given) | – | – | inactive
Cc1cn2nc(C(=O)Nc3ccc(N(C)C)cc3)cc2c(N(C)Cc2ccccc2)n1 | inconclusive: 12.6 µM [inhibitor, partial curve] | – | –
C[C@@H]1O[C@@H](OC[C@H]2O[C@@H](Oc3c(-c4ccc(O)c(O)c4)oc4cc(O)cc(O)c4c3=O)[C@H](O)[C@@H](O)[C@@H]2O)[C@H](O)[C@H](O)[C@H]1O | inconclusive: 39.8 µM [inhibitor, single point] | – | –
O=C(c1cccc(Cn2cccn2)c1)N1CCOC(c2ccc(Cl)cc2)C1 (stereo not given) | – | inactive: -9.71% | –
Cc1nn(C)c(COc2ccc(N3CCN(S(=O)(=O)N(C)C)CC3)cc2)c1-c1cccc2c(CCCOc3cccc4ccccc34)c(C(=O)O)n(CCN3CCOCC3)c12 | inactive | – | –
CCCC(=O)Nc1ccc(OCC(O)CNC(C)C)c(C(C)=O)c1 (stereo not given) | inconclusive: 0.708 µM [inhibitor, partial curve, poor fit] | – | –
O=C(c1nc2cccnc2n(C2CCCC2)c1=O)N1CCN(C(=O)C2CC2)CC1 | – | inactive: -9.8% | –
